The values below come from PubChem BioAssay AID1963576 (National Center for Advancing Translational Sciences (NCATS), 2024).

Out of some 46,000 compounds screened, about 60 (0.1%) were called active. Roughly 3% stayed inconclusive and do not appear here. Calls come from the whole dose curve; as a rule, active = well fitted inhibition curve with a large enough effect; inconclusive = small, poorly fitted or top-dose-only effect; inactive = no such curve, though single readings can be large or run the other way. The list shows a part of the results.

The assay in a line: Primary qHTS assay for Inhibitors of ovarian cancer metastasis using an organotypic tumor microenvironment (TME) model.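 For activity change, negative = inhibition: plate controls were DMSO wells for no effect and tomatine positive control wells for full effect.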 Note: nearly all actives have a fitted effect of over 65% in size. Particulars: SKOV3ip1-GFP adhesion/invasion on 3D omental model, fluorescence; series mostly up to 45.8 µM; activity change, negative = inhibition: at the top concentration. In a few lines: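 Primary human omental fibroblast/mesothelial 3D culture pre-formed 48 h. SKOV3ip1-GFP cells added with compounds (0.36-46 umol/L), incubated 2 h RT/16 h 37 C, fixed; GFP cells quantified at 488/509 nm.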
Background: qHTS replaces the single test concentration by a dilution series.
Consider `CC(C)c1ccc(S(=O)(=O)N2CCC(N3CCN(Cc4ccccc4)C(=O)C3=O)CC2)cc1`, for which the “activity change, negative = inhibition” value was inactive: -2.82%.
Still for that read-out and setting: next, `CCOc1ccc(-c2nc(CSCC(=O)NCCc3ccc(OCC)c(OCC)c3)c(C)o2)cc1`: inactive: -6.21%; `COc1ccccc1-c1c(C)nn2c(N3CCN(c4ccccc4)CC3)cc(C)nc12`: inactive: 2.47%.
In the case of `CCn1c(=O)c(=O)n(CC)c2cc(N3CCCCC3)c(NC(=O)c3ccccc3OC)cc21`, the “activity change, negative = inhibition” value is inactive: -1.74%.
On to `CCCN1CCN(CC2=C(C(=O)OCC)C(c3ccc(OC(C)C)cc3)NC(=O)N2)CC1` (stereo unspecified), for which the “activity change, negative = inhibition” value is inactive: -1.23%.
`COc1cccc(CNC(=O)C(=O)NCC(c2ccc3c(c2)OCO3)N2CCOCC2)c1` (stereo unspecified): the “activity change, negative = inhibition” value is inactive: -5.24%.
As for `C=Cc1ccc(Cn2c(C(=O)O)c(CNC3CCCCC3)c3ccc(OC)cc32)cc1`, the call was inactive.
As for `CCCOC1(C(F)(F)F)NC(=O)N(c2cccc(Cl)c2)C1=O` (stereo unspecified), the “activity change, negative = inhibition” value was inactive: 25%.
For the compound `O=C(Nc1ccc2nc(SCC(=O)N3CCOCC3)sc2c1)c1ccc(Br)cc1`, the compound was called inactive.
Take `CCC(C)NC(=O)CSc1c2c(nc3cc(Cl)ccc13)CCCC2` (stereo unspecified): the “activity change, negative = inhibition” value is inactive: 3.12%.
For `COc1ccc(OC)c(CNC(=O)CN2N=C(c3ccc(Cl)cc3)CCC2=O)c1`, the “activity change, negative = inhibition” value is inactive: -9.22%.
Same read-out and setting: the value for `O=C(NCCc1ccc(Cl)cc1)C(=O)NCC(c1cccs1)S(=O)(=O)c1cccs1` (stereo unspecified) was inactive: 5.65%.
On to `Cc1cc2oc(C(=O)Nc3cccc(-c4nc5ccccc5o4)c3)c(C)c2cc1C`, for which the compound was called inactive.
As to `COc1ccc(-n2nc3cc(C)c(NC(=O)Cc4ccc(Cl)cc4)cc3n2)cc1`, the “activity change, negative = inhibition” value is inactive: -6.27%.
Still for that read-out and setting: the value for `CCOc1ccc(NC(=O)CSc2nnc(CNC(=O)C34CC5CC(CC(C5)C3)C4)n2CC)cc1` was inactive: 17.3%; that for `CCOC(=O)c1ccccc1NC(=O)Nc1cc2c(cc1N1CCCC1)n(C)c(=O)n2C` was inactive: -6.06%.
In the case of `COc1ccc(-c2noc(-c3ccc(N4CCN(c5ccccc5OC)CC4)c([N+](=O)[O-])c3)n2)cc1`, the call was inactive.
Turning to `CCCc1cc(=O)[nH]c(Nc2cc(C)cc(C)c2)n1`, the “activity change, negative = inhibition” value was inactive: -11.1%.
On to `Cc1c(C(=O)N(C)C)sc2c1c(=O)n(-c1ccc(Cl)c(Cl)c1)c(=O)n2CC(=O)N1CCCCC1C` (stereo unspecified), for which the compound was called inactive.
In the case of `COc1cc(C(=O)N(Cc2ccc(N(C)C)cc2)CC2CCCO2)cc(OC)c1OC` (stereo unspecified), the “activity change, negative = inhibition” value was inactive: -13.5%.
With `COc1cccc(Cn2c(C)c(CNC3CCCCC3)c(C(=O)O)c2C)c1`, the “activity change, negative = inhibition” value was inactive: 1.94%.
The same measure, in the same setting: next, `CCCC12CN3CC(CCC)(CN(C1)C3c1ccc(OC(C)C)cc1)C2=O` (stereo unspecified): inactive: -4.07%; `CCc1ccc(NC(=O)CSc2nc(-c3cccc(OC)c3)nc3c2Cc2c(CO)cnc(C)c2O3)cc1`: inactive: 19.6%.
In the case of `CC(Oc1ccccc1)C(=O)Nc1ccccc1C(=O)OCc1cc(=O)n2nc(C(C)C)sc2n1` (stereo unspecified), the compound was called inactive.
On the same count and under the same terms, the value for `O=C(CSc1nc(=O)n(Cc2ccncc2)c2c1CCC2)Nc1ccc(F)cc1F` was “inactive”.
As to `O=C(NCCc1ccccc1)c1ccc(Cn2c(SCc3ccccc3F)nc3cccnc32)cc1`, the “activity change, negative = inhibition” value is inactive: -7.19%.
In the case of `CCCN1CN=C(NS(=O)(=O)c2ccc(NC(C)=O)cc2)NC1`, the compound was classed as inactive.
As to `COc1ccc(NC(=O)c2oc3ccccc3c2NC(=O)Cc2coc3ccc(C)cc23)cc1`, the “activity change, negative = inhibition” value is inactive: 7.99%.
The same measure, in the same setting: the value for `Cc1ccc2nc(-c3ccc(C)o3)c(Nc3ccc4c(c3)OCCO4)n2c1` was inactive: -6.71%.
On the same count and under the same terms, the value for `Clc1ccccc1CSc1nnc(C2CCNCC2)o1` was inactive: -5.79%; that for `CCOc1ccc(NC(=O)CCCOc2cc(=O)n(C)c3ccccc23)cc1` was inactive: -6.14%.
For the compound `COc1ccc(N2CCN(C(=O)CN3C(=O)COc4ccc(S(=O)(=O)N5CCC(C)CC5)cc43)CC2)cc1`, the result was inactive.
The same measure, in the same setting: next, `O=C(c1cnc2c(c1)COc1ccc(Cl)cc1-2)c1ccccc1O`: “inactive”.
As for `COc1ccc(N2CC(NC(=O)C3CCCCC3)CC2=O)cc1OC` (stereo unspecified), the “activity change, negative = inhibition” value is inactive: 18%.
The same measure, in the same setting: next, `Cc1nc(SCC(=O)Nc2nsc(-c3ccc(C(C)(C)C)cc3)n2)c2c3c(sc2n1)CCCC3`: inactive: 3.47%; `COc1ccc(N2CCN(S(=O)(=O)CCNC(=O)Cc3ccc(OC)c(OC)c3)CC2)cc1`: inactive: 2.35%; `O=C(CSc1nc2ncccc2o1)Nc1cccc(C(F)(F)F)c1`: inactive: 0.293%.
In the case of `CCOc1cc(CNC(=O)c2ccc3nc(C(C)C)oc3c2)cc(OCC)c1OCC`, the outcome was inactive.
Consider `O=C(Cn1c(=O)n(-c2ccccc2)c(=O)c2ccc(C(=O)NCc3ccc4c(c3)OCO4)cc21)Nc1ccc(Br)cc1`, for which the “activity change, negative = inhibition” value is inactive: -2.63%.
As for `Cc1ccc(C)c(N2CCN(C(=O)c3cc4c(=O)oc5ccccc5c4s3)CC2)c1`, the call was inactive.
As to `CCCCN(CC)C(=O)c1nn(-c2ccc(OC)cc2)c(=O)c2c1c1ccccc1n2C`, the “activity change, negative = inhibition” value is inactive: 56.9%.
Same read-out and setting: next, `COc1ccc(OC)c(CNC(=O)c2ccc3c(c2)c(C)c(C)n3C)c1`: inactive: -7.89%.
`Cc1ccc2occ(-c3cc(-c4ccc(F)cc4)nc4c3COc3ccc(F)cc3-4)c(=O)c2c1`: the call was inactive.
`COC(=O)c1ccc(NC(=O)CCc2c(C)nc3c(c(C)nn3C(C)(C)C)c2C)cc1`: the “activity change, negative = inhibition” value is inactive: 6.81%.
Same read-out and setting: the value for `COc1ccc(OC)c(CNC(=O)c2nn(C)c3c2CS(=O)(=O)c2ccccc2-3)c1` was inactive: -3.79%; that for `CN(C)C(=O)c1ccc2c(c1)N(CC(=O)NCc1ccccc1Cl)C(=O)C1CCCCN21` (stereo unspecified) was inactive: -7.92%.
